From publication PMC4336329 (PLoS ONE, 2015)
Out of some 310,000 compounds screened, about 2,200 (0.71%) showed an effect of 50% or more. Effects have a minus sign here. Some of the results follow.

The molecules below were run against human ether-à-go-go-related gene (hERG) potassium channel (human, UniProt Q12809) (assay: primary screen, population patch clamp on CHO cells stably expressing hERG).
human ether-à-go-go-related gene (hERG) potassium channel, sequence (Q12809 whole entry, looked up): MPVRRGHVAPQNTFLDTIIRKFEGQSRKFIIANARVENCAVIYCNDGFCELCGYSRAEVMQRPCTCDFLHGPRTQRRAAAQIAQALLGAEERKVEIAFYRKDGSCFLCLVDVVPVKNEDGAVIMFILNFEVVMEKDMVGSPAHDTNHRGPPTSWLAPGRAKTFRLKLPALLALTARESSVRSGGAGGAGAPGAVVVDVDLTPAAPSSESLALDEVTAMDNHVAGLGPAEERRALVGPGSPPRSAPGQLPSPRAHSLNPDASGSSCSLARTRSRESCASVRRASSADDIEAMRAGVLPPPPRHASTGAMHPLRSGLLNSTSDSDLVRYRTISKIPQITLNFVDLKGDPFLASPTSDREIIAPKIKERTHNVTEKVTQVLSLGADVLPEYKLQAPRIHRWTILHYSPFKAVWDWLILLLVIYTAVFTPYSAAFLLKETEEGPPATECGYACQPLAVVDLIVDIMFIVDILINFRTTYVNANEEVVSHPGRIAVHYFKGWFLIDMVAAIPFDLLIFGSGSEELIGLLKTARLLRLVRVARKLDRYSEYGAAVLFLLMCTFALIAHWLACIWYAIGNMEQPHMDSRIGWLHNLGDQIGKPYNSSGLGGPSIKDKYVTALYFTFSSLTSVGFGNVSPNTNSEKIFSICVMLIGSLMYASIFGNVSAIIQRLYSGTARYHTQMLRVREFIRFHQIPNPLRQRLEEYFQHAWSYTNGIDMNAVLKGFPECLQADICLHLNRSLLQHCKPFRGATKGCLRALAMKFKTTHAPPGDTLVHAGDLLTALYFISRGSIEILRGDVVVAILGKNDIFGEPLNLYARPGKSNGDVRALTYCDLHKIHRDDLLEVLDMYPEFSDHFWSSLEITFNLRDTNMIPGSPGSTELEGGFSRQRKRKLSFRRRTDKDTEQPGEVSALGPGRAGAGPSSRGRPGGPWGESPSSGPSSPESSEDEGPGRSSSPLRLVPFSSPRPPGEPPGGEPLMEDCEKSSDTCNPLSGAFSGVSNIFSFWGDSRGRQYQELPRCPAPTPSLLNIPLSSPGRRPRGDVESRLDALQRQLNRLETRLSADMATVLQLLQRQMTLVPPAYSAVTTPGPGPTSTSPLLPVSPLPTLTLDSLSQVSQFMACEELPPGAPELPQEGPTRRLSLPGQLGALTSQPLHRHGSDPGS

SMILES	hERG current change (%, negative = inhibition) at 1uM
Cc1ccc(C)c(OCC(=O)NCCNC(=O)COc2cc(C)ccc2C)c1	7.04%
COc1cc(/C=N/n2c(-c3n[nH]c4c3CCC4)n[nH]c2=S)cc(OC)c1O	15.5%
O=C(CCc1nnc2ccc(NCc3ccco3)nn12)Nc1ccc(F)cc1	8.96%
COc1ccc(S(=O)(=O)Nc2ccccc2C(=O)OC2CCCN(C)C2)cc1OC.Cl (centres unmarked)	11.7%
COc1cccc(C2C(C(=O)c3cccs3)=C(O)C(=O)N2CCN(C)C)c1OC (centres unmarked)	-0.698%
N#Cc1c(-c2ccco2)nc(NCC2CCCO2)[nH]c1=O (centres unmarked)	3.22%
Cn1c(SCC(=O)Nc2nccs2)nnc1-c1ccccn1	14.1%
C#CCOCCOCCOCCNc1nc(N2CCN(C(=O)C([C@@H](C)CC)n3cc(C(N)CC(C)C)nn3)CC2)nc(N2CCN(C(=O)[C@H](CCC(=O)O)n3cc(C(N)Cc4ccc(O)cc4)nn3)CC2)n1.Cl (some centres unmarked)	6.87%
COCC(C)n1c(SCc2cc(=O)n3cc(C)ccc3n2)nc2ccccc2c1=O (centres unmarked)	0.472%
CCS(=O)(=O)N1CCN(c2cccc(C)c2C)CC1	7.08%
Cc1cc(NC(=O)c2cc(-c3ccc(C)s3)nc3ccccc23)no1	8.26%
CC(=O)c1cccc(NC(=O)C2CCN(C(=O)c3ccc([N+](=O)[O-])cc3)CC2)c1	-34.2%
CC(=O)N(Cc1cccnc1)c1cccc(-c2nc3ccccc3s2)c1	-22.4%
COC(=O)[C@H](C)NC(=O)c1cc2c(cn1)[nH]c1ccccc12	5.31%
O=C(CCN1CCOCC1)NC1CCCN(Cc2ccccc2F)C1 (centres unmarked)	-6.2%
c1ccc(-n2nnnc2-n2ccnc2)cc1	2.97%
O=C(O)C(=O)O.c1ccc(-c2ccccc2OCCOCCN2CCCCC2)cc1	-18.9%
Cc1ccc(-c2nnc(Nc3ccc4c(c3)OCO4)c3ccccc23)cc1S(=O)(=O)NC(C)C	-3.03%
COc1ccc(OC)c(Nc2nc(-c3ccncc3)nc3ccccc23)c1	9.73%
CCN1CCN(C(=O)CCc2nnc3ccc(N4CCC5(CC4)OCCO5)nn23)CC1	15%
Cc1cccc(C(=O)Nc2nsc(N)n2)c1	6.52%
CCn1nc(C)c(CN2CCCC(CO)(Cc3cccc(Cl)c3)C2)c1C (centres unmarked)	-8.15%

SMILES	hERG current change (%, negative = inhibition) at 1uM
Cc1c(C(=O)N2CCCCC2)oc2ccc(Br)cc12	3.66%
CC(c1ccco1)N(C(=O)c1ccccc1NS(=O)(=O)c1ccc(Cl)cc1)c1ccccn1 (centres unmarked)	-3.84%
Cc1cccc(-n2c(N)cc(=O)nc2SCC(=O)NC2CCCCC2)c1	4.35%
O=C(NCc1cccc(F)c1)c1noc2c1CCCC2	12.5%
O=C(c1cc2c(s1)CCC2)N1CCN(c2ccccc2)CC1	11.6%
Cn1ncc([N+](=O)[O-])c1C(=O)N/N=C/c1c[nH]c2ccccc12	15.2%
Cc1ccc(S(=O)(=O)N2CCN(C(=O)CCC(=O)NCCc3ccc(S(N)(=O)=O)cc3)CC2)c(C)c1	10.1%
COC(=O)c1c(O)cc(C(C)(C)C)n(-c2ccc(F)cc2)c1=O	4.49%
N#C/C(=C/c1ccc(-c2cc(C(=O)O)cc(C(=O)O)c2)o1)c1nc2ccccc2s1	22.1%
CCNC(=O)/C(C#N)=C/c1c(N2CCN(c3cccc(Cl)c3)CC2)nc2c(C)cccn2c1=O	11.3%
Cc1ccn(-c2cc(O)c(-n3ccc(C)n3)cc2O)n1	9.01%
COCCn1c(SCC#N)nnc1-c1ccc(OC)cc1	14.3%
Cn1c(=O)c2c(SCC(=O)Nc3ccc4c(c3)OCCO4)nc(CC(C)(C)C)nc2n(C)c1=O	15.5%
O=C1CCCCCC1C1(O)C(=O)Nc2ccc(Br)cc21 (centres unmarked)	16.8%
C/C(=N\NC(=O)c1ccccc1)c1ccc(C)c([N+](=O)[O-])c1	13.1%
O=C(c1ccco1)N1CCC(c2ccccc2)C1 (centres unmarked)	-5.58%
COc1ccc(NC(=O)c2ccc(N3C(=O)C4CC=C(C)CC4C3=O)cc2)c(OC)c1 (centres unmarked)	13.6%
CC1CCCC(NC(=O)COC(=O)c2sc3ccccc3c2Cl)C1C (centres unmarked)	7.76%
COCCN1C(=O)/C(=C2/C(=O)N(CC(=O)Nc3ccccc3Cl)c3ccccc32)SC1=S	17.4%
COC(=O)c1ccc(NC(=O)CSc2nnc(CNc3ccc(F)cc3)n2C)cc1	8.17%
Cl.O=C(COc1ccc2ccc(=O)oc2c1)N1CCN(c2ccccc2)CC1	5.42%
O=C(CN1CCN(C(=O)c2cccc(F)c2)CC1)Nc1ccccc1F	-36.4%

SMILES	hERG current change (%, negative = inhibition) at 1uM
COC(=O)C1=C(C)N(Cc2cccnc2)C(=O)/C1=C\c1sccc1C	5.41%
CCCCn1c(N)c(N(CC(C)C)C(=O)c2cc(C)oc2C)c(=O)[nH]c1=O	15.4%
CCOc1ccc(CN(Cc2ccco2)S(=O)(=O)c2ccc(-n3cnnn3)c(OC)c2)cc1	2.18%
C=CCn1c(SCC(=O)Nc2nnc(C)s2)nnc1-c1cccnc1	30.2%
O=C(Nc1nc2c(s1)CCCC2)c1ccc(Br)o1	4.52%
O=C1CC(c2ccccc2)CC2=C1C(c1ccccn1)Nc1ccccc1N2 (centres unmarked)	19.2%
CCOc1ccc(CC(=O)Nc2cccc(-c3ccc4nnc(C)n4n3)c2)cc1	5.13%
CCc1ccccc1NC(=S)NC1CC2CCC(C1)N2Cc1ccco1 (centres unmarked)	-2.28%
CCOc1ccc(N(CC(=O)Nc2ccc(C)c(C)c2)S(C)(=O)=O)cc1	20.5%
CN(C)c1cccc(C(=O)OCC(=O)N2CCc3ccccc3C2)c1	6.68%
CCOc1cc(-c2c(C#N)c(N)nc3c2CCCC3)ccc1O	18.6%
Cc1nnc(C)n1/N=C/c1cccc(Oc2ccccc2)c1	5.24%
O=C(NCc1ccc(N2CCCC2=O)cc1)c1ccc(F)cc1	9.09%
Brc1ccc(-c2cnnc(N3CCCC3)n2)cc1	-5.19%
Brc1ccc(-c2ccc(/C=N/Nc3nc(N4CCOCC4)nc(N4CCOCC4)n3)o2)cc1	-9.33%
COc1cccc(C(=O)C2CCCN(C3CCOCC3)C2)c1 (centres unmarked)	-8.65%
CC(=O)Nc1ccc2nc(NC(=O)CS(=O)(=O)c3ccccc3)sc2c1	1.78%
CN(c1ccc(C(=O)Nc2ccc3c(c2)OCO3)cc1)S(C)(=O)=O	6.83%
Cc1nc(CS(=O)(=O)c2ccc(Cl)cc2)cc(Sc2ccccc2Cl)n1	8.12%
CSc1ccccc1NC(=O)c1c(Br)cnn1C	3.91%
CCOc1ncccc1C(=O)NCCc1ccc(OC)cc1	10.2%
Cc1csc(NC(=O)C2CC(=O)N(c3ccc4c(c3)OCCO4)C2)n1 (centres unmarked)	2.23%

SMILES	hERG current change (%, negative = inhibition) at 1uM
COc1cccc(NC(=O)Nc2nccc(C)n2)c1	12.9%
CCOC(=O)C1=CN(c2cccc(F)c2)C=C(C(=O)OCC)C1c1cc(OC)c(O)c([N+](=O)[O-])c1	3.56%
CC1=C(C(=O)OC(C)C)C(c2cccs2)C(C(=O)OC(C)C)=C(C)N1	12.4%
COCCN(Cc1ccccc1)C(=S)Nc1ccc(OC(F)F)cc1	-17.4%
O=C(CN1CCCC1)Nc1cc(C(F)(F)F)cc(C(F)(F)F)c1	7.38%
O=C(Cc1ccccc1)N1CCN=C1SCc1ccc([N+](=O)[O-])cc1	2.82%
O=C(NNc1ccccc1)Nc1ccccc1F	15.9%
CCOC(=O)N1CCN(C(c2ccc(C(C)C)cc2)c2sc3nc(C)nn3c2O)CC1 (centres unmarked)	8.83%
CCCCSc1nnc([C@@H]2CCCN2C(=O)OC(C)(C)C)o1	-3.58%
CCCCC(=O)OCC(=O)Nc1ccc(C)c(F)c1	9.16%
CCC(=O)Nc1ccc2c(c1)nc(CN1CCN(C(C)=O)CC1)n2C	3.95%
CCn1cc(C(=O)N(CCCN2CCOCC2)Cc2ccco2)c(=O)c2ccc(C)nc21	6.18%
COc1ccc(N2CCOCC2)c(NC(=O)COc2cccc(C)c2)c1	8.49%
Cc1ccc(/C=C2\C(=O)NC(=O)N(CCc3ccc(F)cc3)C2=O)o1	13.1%
CC(C)C(=O)Nc1ccc2c(c1)oc1ccccc12	11.8%
Cc1cc(OCC(=O)NCCc2ccc(Cl)cc2)c2c(C)cc(=O)oc2c1	11.6%
O=C(Nc1ccccc1)Nc1ccccc1C(=O)NCc1ccccc1	10.8%
CC1(c2nnc(-c3cccc(Cl)c3)o2)CC(c2cccc([N+](=O)[O-])c2)=NO1 (centres unmarked)	16.3%
OCCN(Cc1ccccc1)Cc1ccccc1Cl	-1.03%
C=Cc1ccc(N=Cc2c(O)ccc3ccccc23)cc1	9.48%
